# Laboratory results from PubChem BioAssay AID1745845 (National Center for Advancing Translational Sciences (NCATS), 2022).
# About 2,600 (0.72%) of roughly 360,000 compounds were called active. The inconclusive results got no clear call from the source; some entries with a clear call stand among them for comparison. Calls follow the shape of the dose curve; as a rule, active = well fitted inhibition curve with a large enough effect; inconclusive = small, poorly fitted or top-dose-only effect; inactive = no such curve, though single readings can be large or run the other way. Potencies of inconclusive entries are doubtful fits and often do not repeat.
# Experiment: Primary qHTS for Inhibitors of ATXN expression; also: nearly all actives have a fitted effect of over 55% in size
# Details: HEK-293 ATXN2-luciferase reporter, luminescence, 24 h; series mostly up to 57 µM
# In short: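 qHTS (up to 57 uM final) was run with 24 h compound exposure of reporter cells at 37 °C. Each well was multiplexed: SteadyGlo luminescence measured ATXN2-luciferase expression after a fluorogenic Gly-Phe-AFC viability readout (25 uM final).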
# Potency is read from the fitted curve at half-maximal effect; tags tell the direction and shape of the fitted curve.
row,Compound,Potency
1,COc1ccc2c(c1)C(C)=CC(C)(C)N2S(=O)(=O)c1ccc(C)cc1,"inconclusive: 9.47 µM [inhibitor, single point]"
2,Oc1cccc(C(Nc2ccccn2)c2ccc3cccnc3c2O)c1Cl (stereo not given),active: 8.91 µM
3,CCS(=O)(=O)N1CCc2cc(C(=O)N3CCN(c4cccc(C(F)(F)F)c4)CC3)ccc21,"inconclusive: 39.8 µM [inhibitor, single point]"
4,O=C(CCC(=O)Nc1ccc(F)cc1)N/N=C/c1ccc(Br)cc1,inactive
5,C#CCOCCOCCOCCNc1nc(N2CCN(C(=O)CCCCCCCCCCNC(=O)[C@H](CCCCN)n3cc(C[C@@H](C)CC)nn3)CC2)nc(N2CCN(C(=O)CCCCCCCCCCNC(=O)[C@H](CCCCN)n3cc(C[C@@H](C)CC)nn3)CC2)n1,active: 22.4 µM
6,CCOc1ccc(-n2c(-c3ccc(Cl)cc3)c[n+]3c2SCC3)cc1,"inconclusive: 7.94 µM [inhibitor, partial curve, poor fit]"
7,CCCN(CCC)S(=O)(=O)c1cc2c(cc1Br)CCN2C(=O)CC,"inconclusive: 39.8 µM [inhibitor, single point]"
8,COc1cccc2c1C(=O)c1c(O)c3c(c(O)c1C2=O)CC(O)(C(=O)CO)CC3OC1CC(N(C)C)C(O)C(C)O1 (stereo not given),"inconclusive: 1.06 µM [inhibitor, full curve, poor fit]"
9,CN(C)S(=O)(=O)Oc1ccc(C(=O)Nc2cccc(C(F)(F)F)c2)cc1,"inconclusive: 17.8 µM [inhibitor, partial curve]"
10,O=c1c(Cl)cc(Cl)nn1-c1ccccc1,"inconclusive: 39.8 µM [inhibitor, single point]"
11,CCOc1ccccc1OCCCC(=O)N(CC)CC(=O)Nc1c(F)cccc1F,inactive
12,CC(=O)Nc1ccc(Sc2ccc([N+](=O)[O-])o2)cc1,"inconclusive: 39.8 µM [inhibitor, single point]"
13,Cn1cc(C2=C(c3c4n(c5ccccc35)CCC(CN)C4)C(=O)NC2=O)c2ccccc21 (stereo not given),active: 24.3 µM
14,COc1ccc(-n2ncc3c(N4CCN(c5cccc(C)c5)C(C)C4)ncnc32)cc1 (stereo not given),"inconclusive: 3.16 µM [inhibitor, full curve, poor fit]"
15,O=C(C1CCC(CNS(=O)(=O)c2ccc(Br)s2)CC1)N1CCN(c2ccccc2)CC1 (stereo not given),inactive
16,O=C(CCSCCC(=O)NN=Cc1ccccc1O)NN=Cc1ccccc1O,"inconclusive: 17.8 µM [inhibitor, partial curve]"
17,O=c1oc2ccc(Br)cc2cc1S(=O)(=O)c1ccc(F)cc1,"inconclusive: 25.1 µM [inhibitor, partial curve, poor fit]"
18,O=C1CC(c2nc3ccccc3n2CCCCOc2ccccc2)CN1c1ccccc1Cl (stereo not given),"inconclusive: 35.5 µM [inhibitor, single point]"
19,c1ccc(-c2nc(N3CCCCCC3)c3ccccc3n2)nc1,"inconclusive: 5.01 µM [inhibitor, full curve]"
20,O=c1cc(-c2ccccc2)[nH]n1-c1ccccc1,"inconclusive: 39.8 µM [inhibitor, single point]"
21,COc1ccc(OC)c(S(=O)(=O)N2CCC(C(=O)Nc3cccc(C(F)(F)F)c3)CC2)c1,"inconclusive: 20 µM [inhibitor, partial curve, poor fit]"
22,COc1cccc(NC(=O)CN(C)C(=O)Cc2n[nH]c(=O)c3ccccc23)c1,inactive

row,Compound,Potency
1,CCOc1ccc(-n2cc(C(=O)NC(C)C)c3cc(OC)c(OC)cc3c2=O)cc1,inactive
2,CC(C)C(NS(=O)(=O)c1cccs1)C(=O)N1CCC(C(N)=O)CC1 (stereo not given),inactive
3,O=C(CC1Sc2ncnn2C1=O)Nc1ccc(Br)cc1 (stereo not given),"inconclusive: 39.8 µM [inhibitor, single point]"
4,CC(C)N(CCCNC(=O)Nc1ccc(C(C)(C)C)cc1)C[C@H]1O[C@@H](n2cc(Br)c3c(N)ncnc32)[C@H](O)[C@H]1O,active: 21.7 µM
5,O=C(/C=C/c1ccc(Br)cc1)N1CCN(c2cccc(C(F)(F)F)c2)CC1,"inconclusive: 35.5 µM [inhibitor, single point]"
6,CCCCN1C(=O)C(CC(=O)NCCCCc2ccccc2)CC(C(=O)N(C(C)C)C(C)C)=C1C (stereo not given),inactive
7,CC(C)(C)c1ccc(Oc2ccc(N)cc2)cc1,active: 2.82 µM
8,O=[N+]([O-])c1cccc(/C=N\N=C2c3ccccc3-c3ccccc32)c1O,"inconclusive: 25.1 µM [inhibitor, partial curve, poor fit]"
9,CCOC(=O)c1ccc(NC(=O)CN(c2ccc(C)cc2)S(=O)(=O)c2c(C)noc2C)cc1,"inconclusive: 39.8 µM [inhibitor, single point]"
10,Cc1cc(C(=O)Nc2cccc3ccccc23)c(C)o1,inactive
11,COc1ccc(CCN=CC2=C(O)CC(C)(C)CC2=O)cc1,"inconclusive: 39.8 µM [inhibitor, partial curve, poor fit]"
12,Cc1ccc(OCCCN2CCC(C(O)(c3ccccc3)c3ccccc3)CC2)cc1,"inconclusive: 39.8 µM [inhibitor, single point]"
13,O=C(C1CCN(Cc2cn[nH]c2-c2ccc(F)cc2F)CC1)N1CCOCC1,inactive
14,Cc1ccc(NC(=O)/C=C/c2ccc([N+](=O)[O-])s2)cc1,inactive
15,CC1(C)OC2OC(C(=O)N/N=C/c3cc(Br)ccc3O)C3OC(C)(C)OC3C2O1 (stereo not given),"inconclusive: 14.1 µM [inhibitor, partial curve]"
16,O=C(Nc1ccccc1)Nc1ncc([N+](=O)[O-])s1,"inconclusive: 12.6 µM [inhibitor, partial curve, poor fit]"
17,CN1c2ccccc2C(O)=C(C(=S)Nc2ccc(F)c(Cl)c2)S1(=O)=O,"inconclusive: 35.5 µM [inhibitor, single point]"
18,Cc1[nH]c(-c2ccc(F)cc2)cc1C(=O)N1CCN(c2ccc(Cl)cc2)CC1,active: 14.1 µM
19,COc1c(OC(C)=O)ccc(/C=C/c2ccc3ccccc3n2)c1[N+](=O)[O-],inactive
20,Cc1cn([C@H]2C[C@H](O)[C@@H](CNC(=O)c3ccccn3)O2)c(=O)[nH]c1=O,inactive
21,CC(=O)Nc1ccc(S(=O)(=O)NCCOc2ccc(Cl)cc2C)cc1,inactive
22,Clc1nssc1=Nc1nncs1,"inconclusive: 31.6 µM [inhibitor, single point]"

row,Compound,Potency
1,COc1ccc(CN2C(=O)C(Cc3ccccc3)Nc3ncnc(N4CCOCC4)c32)cc1 (stereo not given),inactive
2,COCc1cc(CN2CCCC2)c(O)c2ncccc12,"inconclusive: 14.1 µM [inhibitor, partial curve, poor fit]"
3,O=C(Nc1cc(S(=O)(=O)N2CCCCC2)ccc1O)c1ccccc1NS(=O)(=O)c1ccc(F)cc1,"inconclusive: 22.4 µM [inhibitor, partial curve, poor fit]"
4,Cc1ccc(NC(=O)c2cnc(SCC(=O)NCC3CCCO3)n(C)c2=O)cc1 (stereo not given),"inconclusive: 39.8 µM [inhibitor, single point]"
5,COc1ccc(-c2cc3nc(C)c(CCC(=O)N4CCN(c5cccc(Cl)c5)CC4)c(C)n3n2)c(OC)c1,inactive
6,CCOC(=O)c1c(NC(C)=O)sc2c(OCCN(CC)CC)c(Br)ccc12,"inconclusive: 9.47 µM [inhibitor, full curve, poor fit]"
7,CC1(C(=O)Nc2ccc(Cl)c(Cl)c2)CCN1C(=O)CC(c1ccccc1)c1ccccc1 (stereo not given),"inconclusive: 17.8 µM [inhibitor, partial curve, poor fit]"
8,CCOC(=O)c1[nH]c2ccc(Br)cc2c1NC(=O)CCN1CCC(C(=O)OCC)CC1,inactive
9,c1cncc(CN2CCC(n3ncc4c(N5CCOCC5)nc(-c5ccc6[nH]ccc6c5)nc43)CC2)c1,active: 21.7 µM
10,COc1ccc(S(=O)(=O)N2CCCCCC2)cc1N(C)S(=O)(=O)c1ccc(C)cc1,inactive
11,O=C(O)C1CCCN1S(=O)(=O)c1ccc(Br)s1 (stereo not given) (tested in a mixture with another compound),inactive
12,COc1cccc(CN2CCC2(C)C(=O)Nc2cccc3cccnc23)c1F (stereo not given),"inconclusive: 1.26 µM [inhibitor, partial curve]"
13,CN(c1ccccc1)S(=O)(=O)c1ccc(NC(=O)c2ccc(-c3ccccc3)cc2)cc1,"inconclusive: 7.94 µM [inhibitor, partial curve, poor fit]"
14,COc1ccc(CC2S/C(=N/N=C/c3ccccc3O)NC2=O)cc1 (stereo not given),"inconclusive: 39.8 µM [inhibitor, single point]"
15,CC(NCc1ccc2c(c1)nc(NC(=O)c1ccc(-c3cn[nH]c3)s1)n2CC(C)(C)O)C(C)(C)C (stereo not given),active: 0.968 µM
16,COc1ccccc1Cc1c(-c2ccc(Cl)cc2)nc2c(C)cc(Br)cn12,"inconclusive: 39.8 µM [inhibitor, single point]"
17,CCOc1ccc(NC(=O)CN2CCN(CC(=O)Nc3ccc(Cl)c(C(F)(F)F)c3)CC2)cc1,"inconclusive: 31.6 µM [inhibitor, single point]"
18,CCOC(=O)C1CCCN(C(=O)c2ccc3c(=O)n(CCOC)c(=S)[nH]c3c2)C1 (stereo not given),"inconclusive: 11.2 µM [inhibitor, partial curve, poor fit]"
19,CCOC(=O)c1ccc(NC(=O)C2CCN(S(=O)(=O)c3ccc4c(c3)CCCC(=O)N4)CC2)cc1,"inconclusive: 25.1 µM [inhibitor, single point]"
20,CCOc1ccccc1CNC(=O)c1cc(-c2ccc(Cl)s2)nc2ccccc12,inactive
21,COc1ccc(C(O)c2ncc(-c3cccc(OCc4ccccc4)c3)[nH]2)cc1F (stereo not given),"inconclusive: 31.6 µM [inhibitor, single point]"
